Data reported in PubChem BioAssay (NCATS).
Several values for one entry are separate records, joined by “and”; a condition that tells them apart may be missing. Equal values may be shown once. The inconclusive results got no clear call from the source; some entries with a clear call stand among them for comparison. For some assays here: Potencies beside an inconclusive call are fits to weak or partial responses and may not hold up. Activity calls are given as the source filed them. Calls follow the shape of the dose curve; as a rule, active = well fitted curve in the direction sought with a large enough effect; inconclusive = small, poorly fitted or top-dose-only effect, or another doubt; inactive = no such curve, though single readings can be large; an effect the other way counts as inactive or inconclusive. Square brackets hold non-standard residues; d marks the D form. Peptide text beside a SMILES is read from it. * marks the point of attachment. Sta = CC(C)C[C@H](N)[C@@H](O)CC(=O)O; Isovaleryl = CC(C)CC(=O)*

Experiments:
[1] = Viability qHTS for spleen associated tyrosine kinase inhibitor (SYKi) naive MV4-11 cells (AID 1963823); conditions: MV4-11 AML viability, CellTiter-Glo luminescence, 72 h; viability (% of control): at 45 µM (top of the series); also: nearly all actives have a fitted effect of over 40% in size; also: potency is read from the fitted curve at half-maximal effect
Method in brief: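 Compounds were dispensed acoustically onto plates, MV4-11 cells (SYKi-naive) added at 500 per well, and plates incubated 72 hr at 37 C. CellTiter-Glo was added and luminescence measured after 10 min.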

[2] = Viability qHTS for spleen associated tyrosine kinase inhibitor (SYKi) drug resistant MV4-11 cells (AID 1963824); conditions: SYKi-resistant MV4-11 viability, CellTiter-Glo, 72 h; series mostly up to 45 µM; also: nearly all actives have a fitted effect of over 35% in size; also: potency is read from the fitted curve at half-maximal effect
Method in brief: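 CellTiter-Glo luminescence, read 10 min after reagent addition, reports viability after a 72 hr compound exposure. Cells are an MV4-11 line made resistant to SYK inhibition, seeded at 500 per well onto compound-containing plates.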

[3] = Quantitative highthroughput screen to assess conditional lethalithy of NOMO1 cells grown in Human Plasma-Like Medium with dialyzed fetal bovine serum (HPLM+ds) (AID 1963878); conditions: NOMO1 AML cells in HPLM+ds, CellTiter-Glo viability, 48 h; viability: at 45.8 µM (top of the series); also: nearly all actives have a fitted effect of over 35% in size; also: potency is read from the fitted curve at half-maximal effect;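 as to Viability: 100% = DMSO wells and 0% = empty wells on each plate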
Method in brief: (§1)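 Each medium arm—HPLM with 10% dialyzed FBS, or RPMI1640 with 5 mM glucose and 10% untreated or dialyzed FBS—was screened against an 11-point, 3-fold compound titration for 48 h at 37 °C, with CellTiter-Glo luminescence as endpoint.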

[4] = Quantitative highthroughput screen to assess conditional lethalithy of P12 Ichikawa cells grown in Human Plasma-Like Medium with dialyzed fetal bovine serum (HPLM+ds) (AID 1963879); conditions: ATP luminescence, 48 h; Potency: viability; series mostly up to 45.8 µM; also: nearly all actives have a fitted effect of over 35% in size; also: potency is read from the fitted curve at half-maximal effect
Method in brief: as §1

[5] = Quantitative highthroughput screen to assess conditional lethalithy of P12 Ichikawa cells grown in RPMI1640 with dialyzed fetal bovine serum (RPMI+ds) (AID 1963880); conditions: ATP luminescence, 48 h; Potency: P12-Ichikawa viability; series mostly up to 45.8 µM; also: nearly all actives have a fitted effect of over 35% in size; also: potency is read from the fitted curve at half-maximal effect;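 as to Viability: 100% = DMSO wells and 0% = empty wells on each plate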
Method in brief: as §1

[6] = Quantitative highthroughput screen to assess conditional lethalithy of P12 Ichikawa cells grown in RPMI1640 with untreated serum (RPMI+s) (AID 1963881); conditions: ATP luminescence, 48 h; Potency: viability; series mostly up to 45.8 µM; also: nearly all actives have a fitted effect of over 35% in size; also: potency is read from the fitted curve at half-maximal effect;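 as to Viability: 100% = DMSO wells and 0% = empty wells without cells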
Method in brief: as §1

[7] = Quantitative highthroughput screen to assess conditional lethalithy of SEM cells grown in Human Plasma-Like Medium with dialyzed fetal bovine serum (HPLM+ds) (AID 1963882); conditions: SEM B-ALL cells in HPLM+ds, CellTiter-Glo viability, 48 h; series mostly up to 45.8 µM; also: nearly all actives have a fitted effect of over 35% in size; also: potency is read from the fitted curve at half-maximal effect
Method in brief: as §1

[8] = Quantitative highthroughput screen to assess conditional lethalithy of SEM cells grown in RPMI1640 with unreated serum (RPMI+s) (AID 1963883); conditions: SEM B-ALL cells, CellTiter-Glo viability, 48 h; viability: at 45.8 µM (top of the series); also: nearly all actives have a fitted effect of over 35% in size; also: potency is read from the fitted curve at half-maximal effect;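 as to Viability: 100% = DMSO wells and 0% = empty wells without cells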
Method in brief: as §1

[9] = Quantitative highthroughput screen to assess conditional lethalithy of SEM cells grown in RPMI1640 with dialyzed fetal bovine serum (RPMI+ds) (AID 1963884); conditions: SEM B-ALL cells, RPMI+dialyzed FBS, CellTiter-Glo viability, 48 h; viability: at 45.8 µM (top of the series); also: nearly all actives have a fitted effect of over 35% in size; also: potency is read from the fitted curve at half-maximal effect;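 as to Viability: 100% = DMSO control wells and 0% = empty wells without cells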
Method in brief: as §1

[10] = Quantitative highthroughput screen to assess conditional lethalithy of NOMO1 cells grown in RPMI1640 with dialyzed fetal bovine serum (RPMI+ds) (AID 1963877); conditions: NOMO1 in RPMI+dialyzed FBS viability, ATP luminescence, 48 h; series mostly up to 45.8 µM;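 also: 100% = DMSO control wells and 0% = empty wells; nearly all actives have a fitted effect of over 30% in size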
Method in brief: as §1

[11] = Cellular viability qHTS for adrenocortical cancer (ACC) cell line SW-13 (AID 1963989); conditions: SW-13 ACC cells viability, CellTiter-Glo, 48 h; activity (max response): stronger effect = lower value; also: nearly all actives have a fitted effect of over 65% in size; also: potency is read from the fitted curve at half-maximal effect;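 as to activity (max response): cells grown in serum-free medium with ITS supplement; % is scaled to controls: 0 for no effect and ±100 for the full control effect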
Method in brief: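 Here, serum-free SW-13 cultures were dosed up to 46 uM. Following 48 h, ATP-dependent luminescence (CellTiter-Glo) reported viable cells, and logistic modeling produced IC50 values.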

[12] = Cellular viability qHTS for adrenocortical cancer (ACC) cell line NCI-H295R (AID 1963990); conditions: CellTiter-Glo ATP luminescence, 48 h; activity change, negative = viability loss: at 46.1 µM (top of the series); also: nearly all actives have a fitted effect of over 60% in size; also: potency is read from the fitted curve at half-maximal effect;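 as to activity change, negative = viability loss: 0% = DMSO only wells and -100% = full killing with cytotoxic reference compound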
Method in brief: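 Viability of NCI-H295R after 48 h of treatment (final up to 46 uM) measured through cellular ATP luminescence.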
Tags tell the direction and shape of the fitted curve.

SMILES: O=C1CN2Cc3c(ccc(Cl)c3Cl)N=C2N1
- Potency [1]: inconclusive: 6.61 µM [cytotoxic, partial curve, poor fit]
- Potency [2]: inconclusive: 20.9 µM [cytotoxic, partial curve]
- Potency [3]: inconclusive: 37.2 µM [cytotoxic, partial curve, poor fit]
- Potency [4]: inconclusive: 37.2 µM [cytotoxic, partial curve, poor fit]
- Potency [5]: inconclusive: 23.5 µM [cytotoxic, single point]
- Potency [6]: inconclusive: 26.4 µM [cytotoxic, single point]
- Potency [7]: inactive
- Potency [8]: inconclusive: 20.9 µM [cytotoxic, partial curve]
- Potency [9]: inconclusive: 26.4 µM [cytotoxic, single point]

SMILES: Nc1ccc(S(=O)(=O)Nc2ccnn2-c2ccccc2)cc1
- Potency [1]: inconclusive: 0.0007 µM
- Potency [2]: inconclusive: 0.0005 µM
- Potency [10]: inactive
- Potency [9]: inactive
- activity (max response) [11]: inactive: 3.92%
- Potency [12]: inactive

SMILES: CNC(=O)c1ccc(C)c(-n2c(C)cc(OCc3ccc(F)cc3F)c(Br)c2=O)c1
- Potency [1]: inconclusive: 8.2 µM [cytotoxic, partial curve]
- Potency [2]: active: 8.2 µM
- Potency [10]: inactive
- Potency [9]: inactive
- Potency [11]: inconclusive: 22.4 µM [cytotoxic, single point]

SMILES: Cc1ccc(NC(=O)c2cccc(N(C)C)c2)cc1NC(=O)c1ccc(O)cc1
- Potency [1]: inconclusive: 20.9 µM [cytotoxic, partial curve]
- Potency [2]: inconclusive: 16.6 µM [cytotoxic, partial curve, poor fit]
- Potency [10]: inactive
- Potency [11]: inconclusive: 35.5 µM [cytotoxic, single point]

SMILES: Cc1ccc2c(c1)C(=O)[C@]1(O)CCN(c3ccccc3)C1=N2
- Potency [1]: inconclusive: 16.6 µM [cytotoxic, partial curve]
- Potency [2]: inconclusive: 16.4 µM [cytotoxic, partial curve]
- Potency [3]: inactive
- Potency [4]: inactive
- Potency [6]: inactive
- Potency [11]: inconclusive: 28.2 µM [cytotoxic, partial curve, poor fit]

SMILES: O=C1NC(=O)C(c2ccccc2[N+](=O)[O-])=C1Nc1ccc(O)c(Cl)c1
- Potency [1]: inconclusive: 5.9 µM [cytotoxic, partial curve] and inconclusive: 4.6 nM [cytotoxic, full curve, poor fit]
- Potency [2]: active: 16.6 µM and inconclusive: 11.6 µM [cytotoxic, partial curve, poor fit]
- Potency [3]: inconclusive: 0.59 µM [cytotoxic, full curve]
- Potency [4]: inconclusive: 20.9 µM [cytotoxic, partial curve, poor fit]
- Potency [5]: active: 14.8 µM
- Potency [6]: inconclusive: 16.6 µM [cytotoxic, partial curve]
- Potency [8]: inconclusive: 14.8 µM [cytotoxic, partial curve]

SMILES: Cc1nnc(C(=O)NC(C)(C)c2nc(C(=O)NCc3ccc(F)cc3)c(O)c(=O)n2C)o1
- Potency [1]: inconclusive: 0.0013 µM [rising, full curve, poor fit]
- Potency [2]: inactive and inconclusive: 9.34 µM [cytotoxic, single point]
- Potency [3]: inactive
- Potency [5]: inactive
- Potency [6]: inactive
- Potency [7]: inactive
- Potency [8]: inactive

SMILES: COc1ccc(-c2c(-c3ccc(O)cc3O)n[nH]c2C)cc1
- Potency [1]: inconclusive: 8.33 µM [cytotoxic, partial curve, poor fit]
- Potency [2]: inconclusive: 5.25 µM [cytotoxic, partial curve, poor fit]
- Potency [3]: inconclusive: 48.1 µM [cytotoxic, single point]
- Potency [4]: inconclusive: 48.1 µM [cytotoxic, partial curve, poor fit]
- Potency [6]: inconclusive: 42.9 µM [cytotoxic, single point]
- Potency [7]: inconclusive: 24.1 µM [cytotoxic, partial curve]
- Potency [9]: inconclusive: 27 µM [cytotoxic, partial curve]

SMILES: COc1cc2ncnc(Nc3cc(Br)c(O)c(Br)c3)c2cc1OC
- Potency [1]: active: 11.8 µM and active: 11.6 µM
- Potency [2]: active: 13.2 µM and active: 9.2 µM
- Potency [3]: inactive
- Potency [5]: inactive
- Potency [7]: inactive
- Potency [8]: inactive
- Potency [9]: inconclusive: 20.9 µM [cytotoxic, partial curve]

SMILES: CC(C)(Sc1cc(C(C)(C)C)c(O)c(C(C)(C)C)c1)Sc1cc(C(C)(C)C)c(O)c(C(C)(C)C)c1
- Potency [1]: inactive and inconclusive: 29.5 µM [cytotoxic, single point]
- Potency [2]: inconclusive: 37.2 µM [cytotoxic, single point]
- Potency [3]: inactive
- Potency [5]: inactive
- Potency [12]: inconclusive: 2.31 µM [cytotoxic, full curve]

SMILES: C=C(C)[C@@H]1CC[C@]2(C)CC[C@]3(C)[C@H](CC[C@@H]4[C@@]5(C)CC[C@H](O)C(C)(C)[C@H]5CC[C@]43C)[C@@H]12
- Potency [1]: inactive
- Potency [2]: inactive
- Potency [3]: inactive
- Potency [6]: inactive
- Potency [7]: inactive
- Potency [8]: inactive

SMILES: CCOC(=O)C1=C(C)NC2=C(C(=O)CC(C)(C)C2)C1c1ccc(-c2ccccc2)cc1 (stereo not given)
- Potency [1]: inconclusive: 23.1 µM [cytotoxic, partial curve]
- Potency [2]: active: 18.4 µM and active: 18.6 µM
- Potency [3]: inconclusive: 16.6 µM [cytotoxic, partial curve, poor fit]
- Potency [6]: inactive
- Potency [8]: inconclusive: 20.9 µM [cytotoxic, partial curve, poor fit]
- Potency [9]: inconclusive: 18.7 µM [cytotoxic, partial curve]

SMILES: CCCCCCCCc1ccc(CCC(N)(CO)CO)cc1
- Potency [1]: active: 5.17 µM
- Potency [2]: active: 4.61 µM
- Potency [3]: active: 14.8 µM
- Potency [5]: active: 18.7 µM
- Potency [8]: inconclusive: 33.2 µM [cytotoxic, single point]
- Potency [9]: inconclusive: 37.2 µM [cytotoxic, single point]

SMILES: CC(=O)OCC(CCn1cnc2cnc(N)nc21)COC(C)=O
- Potency [1]: inactive and inconclusive: 26.3 µM [cytotoxic, single point]
- Potency [2]: inactive and inconclusive: 26.3 µM [cytotoxic, partial curve, poor fit]
- Potency [3]: inactive
- Potency [5]: inactive
- Potency [8]: inactive
- Potency [9]: inactive
- Potency [12]: inactive

SMILES: CC(C)CC(=O)N[C@H](C(=O)N[C@H](C(=O)N[C@@H](CC(C)C)[C@@H](O)CC(=O)N[C@@H](C)C(=O)N[C@@H](CC(C)C)[C@@H](O)CC(=O)O)C(C)C)C(C)C (Isovaleryl-VV[Sta]A[Sta]-OH)
- Potency [1]: inactive
- Potency [2]: inactive
- Potency [3]: inactive
- Potency [5]: inactive
- Potency [6]: inactive
- Potency [7]: inconclusive: 33.2 µM [cytotoxic, single point]
- Potency [9]: inconclusive: 33.2 µM [cytotoxic, single point]

SMILES: CC(=O)NCCC(=O)N[C@@H](CCC(N)=O)C(=O)N[C@@H](CO)C(=O)N[C@@H](CCC(N)=O)C(=O)N[C@@H](CCC(N)=O)C(=O)N[C@H](C(=O)N[C@@H](Cc1ccccc1)C(=O)N[C@]1(C)CCCCCCC=CCCC[C@@](C)(C(=O)N[C@@H](CCC(N)=O)C(=O)N[C@@H](CC(N)=O)C(N)=O)NC(=O)[C@H](CC(C)C)NC(=O)[C@H](CC(C)C)NC(=O)[C@@H](CCCNC(=N)N)NC(=O)[C@H](Cc2c[nH]c3ccccc23)NC(=O)[C@H](CC(C)C)NC(=O)[C@H](CC(N)=O)NC1=O)[C@H](C)O
- Potency [1]: inconclusive: 23.5 µM [cytotoxic, single point]
- Potency [2]: inconclusive: 23.5 µM [cytotoxic, partial curve]
- Potency [3]: inconclusive: 33.2 µM [cytotoxic, single point]
- Potency [5]: inactive
- Potency [7]: inconclusive: 2.96 µM [cytotoxic, full curve]
- Potency [9]: active: 2.64 µM
- Potency [12]: inconclusive: 25.1 µM [cytotoxic, single point]

SMILES: CN1CCN(C2=Nc3cc(Cl)ccc3Nc3ccccc32)CC1
- Potency [1]: inconclusive: 1.06 µM [cytotoxic, full curve, poor fit] and inconclusive: 7.42 µM [cytotoxic, full curve]
- Potency [2]: inactive and inconclusive: 6.61 µM [cytotoxic, full curve]
- Potency [3]: inconclusive: 26.4 µM [cytotoxic, single point]
- Potency [7]: inconclusive: 33.2 µM [cytotoxic, single point]
- Potency [8]: inconclusive: 37.2 µM [cytotoxic, single point]
- Potency [9]: inconclusive: 23.5 µM [cytotoxic, partial curve]
- Potency [11]: inconclusive: 20.6 µM [cytotoxic, single point]
- Potency [12]: inconclusive: 23.1 µM [cytotoxic, single point] and inconclusive: 35.5 µM [cytotoxic, single point]
